Source: patent publication US20250177546A1, “ROR1-TARGETED BINDING MOLECULE AND USE THEREOF” (SANYOU BIOPHARMACEUTICALS CO., LTD., priority 2022, published 2025)

Columns and labels:
Assay type in all cases: binding
[1] = biological target: T1, human ROR2 antigen protein huROR2-His (Homo sapiens, UniProt Q01974); test: ELISA cross-reactivity between homologous groups (huROR2-His)
T1 construct: huROR2 ECD AA34-403 (Uniprot ID: Q01974); made in house; host or cells: HEK293 (transient transfection, pcDNA3.4)

[2] = biological target: T2, antigen protein huROR1-His (Homo sapiens, UniProt Q01973); test: Affinity kinetics (Gator)
T2 construct: huROR1 ECD AA30-406 (Uniprot ID: Q01973); made in house; host or cells: HEK293 (transient transfection, pcDNA3.4)

[3] = biological target: T3, mouse ROR1 antigen protein MusROR1-His (Mus musculus, UniProt Q9Z139); test: ELISA cross-reactivity between species (MusROR1-His)
T3 construct: MusROR1 ECD AA30-406 (Uniprot ID: Q9Z139); made in house; host or cells: HEK293 (transient transfection, pcDNA3.4)
T3 sequence (Q9Z139 30-406): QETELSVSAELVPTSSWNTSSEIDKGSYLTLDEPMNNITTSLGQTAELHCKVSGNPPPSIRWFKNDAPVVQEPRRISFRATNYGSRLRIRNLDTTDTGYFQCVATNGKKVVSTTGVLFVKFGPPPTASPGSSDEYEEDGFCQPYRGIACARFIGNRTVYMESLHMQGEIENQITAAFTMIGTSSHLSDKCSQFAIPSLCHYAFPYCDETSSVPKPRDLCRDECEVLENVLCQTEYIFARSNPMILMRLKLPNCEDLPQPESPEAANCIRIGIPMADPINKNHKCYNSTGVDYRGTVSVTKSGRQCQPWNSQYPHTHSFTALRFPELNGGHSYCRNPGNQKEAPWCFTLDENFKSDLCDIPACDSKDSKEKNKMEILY

T1 sequence (Q01974 34-403): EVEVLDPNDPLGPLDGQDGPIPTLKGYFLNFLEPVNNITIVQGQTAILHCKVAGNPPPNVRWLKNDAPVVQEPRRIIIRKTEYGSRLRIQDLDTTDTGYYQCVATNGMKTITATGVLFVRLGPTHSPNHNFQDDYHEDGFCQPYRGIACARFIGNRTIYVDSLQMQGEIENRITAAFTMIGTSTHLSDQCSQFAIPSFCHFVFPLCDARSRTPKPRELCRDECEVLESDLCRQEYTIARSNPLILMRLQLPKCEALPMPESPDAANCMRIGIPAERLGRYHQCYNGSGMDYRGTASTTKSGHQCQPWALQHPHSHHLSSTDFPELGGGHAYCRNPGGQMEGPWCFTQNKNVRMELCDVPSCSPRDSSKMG
T2 sequence (Q01973 30-406): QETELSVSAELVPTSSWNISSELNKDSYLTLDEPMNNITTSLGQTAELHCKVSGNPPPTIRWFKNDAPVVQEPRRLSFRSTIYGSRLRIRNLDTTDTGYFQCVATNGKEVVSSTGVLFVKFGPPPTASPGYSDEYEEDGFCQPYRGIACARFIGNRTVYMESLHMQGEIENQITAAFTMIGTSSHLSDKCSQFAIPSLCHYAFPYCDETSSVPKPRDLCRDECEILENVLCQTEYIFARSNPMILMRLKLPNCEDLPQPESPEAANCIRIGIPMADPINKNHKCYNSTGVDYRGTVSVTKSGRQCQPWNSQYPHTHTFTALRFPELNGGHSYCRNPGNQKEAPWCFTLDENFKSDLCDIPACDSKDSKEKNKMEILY

| huROR2-His [1] | Ka [2] [M⁻¹ s⁻¹] | Kd [2] [s⁻¹] | Rmax (nm) [2] [nm] | MusROR1-His [3] | Molecule | affinity relative to control antibody 99961.1 [2] |
| --- | --- | --- | --- | --- | --- | --- |
| no binding | 330000 | 0.000614 | 0.920 | no binding | M78: chimeric anti-ROR1 antibody, murine clone M78; CDRs SEQ ID NO 18, 25, 27, 35, 32, 33 (antibody) heavy: EVMLVESGGGLVRPGGSLKLSCAASGFTFSSYAMSWVRQSPEKRLEWVASINRGGTTYYPDSVKGRFTISRDNARDILYLQMSSLRSEDTAIYYCARDYYYGSNLYNGMDYWGQGTSVIVSS[human IgG1 constant region not listed] light: DIKITQSPSSMYASLGERVTITCKASQDINSYLSWFQQKPGKSPKTLIYRANRLVDGVPSRFSGSGSGQDYSLTISSLEYEDMGIYYCLQFDEFPYTFGGGTKLEIKRTVAAPSVFIFPPSDEQLKSGTASVVCLLNNFYPREAKVQWKVDNALQSGNSQESVTEQDSKDSTYSLSSTLTLSKADYEKHKVYACEVTHQGLSSPVTKSFNRGEC | – |
| no binding | 323000 | 0.000464 | 1.080 | no binding | B74: chimeric anti-ROR1 antibody, murine clone B74; CDRs SEQ ID NO 10-12, 35, 32, 36 (antibody) heavy: EVMLVESGGNLVKPGGSLKLSCAASGFTFSIYAMSWVRQTPEKRLEWVASISGGGTAYYPDSVKGRFTISRDNARNILYLQMSSLRSEDTAIYYCARGYYYGGSPYWHFDVWGAGTTVTVSS[human IgG1 constant region not listed] light: DIKMTQSPSSMYASLGERVTITCKASQDINSYLSWFQQKPGKSPKTLIYRANRLVDGVPSRFSGSGSGQDYSLTISSLEYEDIGIYYCLQIDEFPYTFGGGTKLEIKRTVAAPSVFIFPPSDEQLKSGTASVVCLLNNFYPREAKVQWKVDNALQSGNSQESVTEQDSKDSTYSLSSTLTLSKADYEKHKVYACEVTHQGLSSPVTKSFNRGEC | – |
| no binding | 314000 | 0.000774 | 0.959 | no binding | C77: chimeric anti-ROR1 antibody, murine clone C77; CDRs SEQ ID NO 20, 21, 12, 31-33 (antibody) heavy: EVKLVESGGGLVKPGGSLKLSCAASGFSFSNYAMSWVRQTPEKRLEWVASINSGVTTYYPDSVKGRFTVSRDNARNILYLHMTGLRSEDTAIYYCSRGYYYGGSPYWHFDVWGAGTTVTVSS[human IgG1 constant region not listed] light: DIQMTQSPSSMHASLGERVTITCKASQDINNYVSWFQQKPGKSPKTLIYRANRLVDGVPSRFSGSGSGQDYSFTISSLEYEDMGIYYCLQFDEFPYTFGGGTKLEIKRTVAAPSVFIFPPSDEQLKSGTASVVCLLNNFYPREAKVQWKVDNALQSGNSQESVTEQDSKDSTYSLSSTLTLSKADYEKHKVYACEVTHQGLSSPVTKSFNRGEC | – |

The next lines start with the molecule.

| Molecule | huROR2-His [1] | Ka [2] [M⁻¹ s⁻¹] | Kd [2] [s⁻¹] | Rmax (nm) [2] [nm] | MusROR1-His [3] | affinity relative to control antibody 99961.1 [2] |
| --- | --- | --- | --- | --- | --- | --- |
| B32: chimeric anti-ROR1 antibody, murine clone B32; CDRs SEQ ID NO 7-9, 34, 32, 33 (antibody) heavy: EVKLMESGGGLVKPGGSLKLSCAASGFAFSSYAMSWVRQTPDKRLEWVASINRDVTTYYPDSMKGRFTISRDNARNILYLQMSSLRSEDTAMYYCARGYYYGGGPYWHFDVWGAGTTVTVSS[human IgG1 constant region not listed] light: DIQITQSPSSMYASLGERVTITCKASQDINSYLTWFQQKPGKSPKTLIYRANRLVDGVPSRFSGSGSGQDYSLTISSLEYEDMGIYYCLQFDEFPYTFGGGTKLEIKRTVAAPSVFIFPPSDEQLKSGTASVVCLLNNFYPREAKVQWKVDNALQSGNSQESVTEQDSKDSTYSLSSTLTLSKADYEKHKVYACEVTHQGLSSPVTKSFNRGEC | no binding | 301000 | 0.000377 | 0.874 | bind to the antigen protein MusROR1-His; also recorded: binding | – |
| B34: chimeric anti-ROR1 antibody, murine clone B34; CDRs SEQ ID NO 4, 13, 14, 35, 32, 37 (antibody) heavy: EVQLVESGGGLVQPKGSLKLSCAASGFTFSRYAMSWVRQTPEKRLEWVASISTGGSPYYPDSVKGRFTISRDNARNILYLQMSSLKSEDTAMYYCARGYYYNSSPHWYFAVWGAGTSVTVSS[human IgG1 constant region not listed] light: DIQMTQSPSSLSASLGERVTITCKASQDINSYLSWFQQKPGKSPKTLIYRANRLVDGVPSRFSGSGSGQDYSLTISSLEYEDMGIYYCLQYDEFPYTFGGGTKLEIKRTVAAPSVFIFPPSDEQLKSGTASVVCLLNNFYPREAKVQWKVDNALQSGNSQESVTEQDSKDSTYSLSSTLTLSKADYEKHKVYACEVTHQGLSSPVTKSFNRGEC | no binding | 241000 | 0.000609 | 0.782 | no binding | – |
| M71: chimeric anti-ROR1 antibody, murine clone M71; CDRs SEQ ID NO 4, 25, 26, 35, 32, 33 (antibody) heavy: EVMLVESGGGLVKPGGSLKLSCAASGFTFSRYAMSWVRQTPEKRLEWVASINRGGTTYYPDSVKGRFTISRDNARDILYLQMSSLRSEDTAIYYCARDYYYGSSLYNGMDFWGQGTSVIVSS[human IgG1 constant region not listed] light: DIQMTQSPSSMYASLGERVTITCKASQDINSYLSWFQQKPGKSPKTLIYRANRLVDGVPSRFSGSGSGQDYSLTISSLESEDMGIYYCLQFDEFPYTFGGGTKLEIKRTVAAPSVFIFPPSDEQLKSGTASVVCLLNNFYPREAKVQWKVDNALQSGNSQESVTEQDSKDSTYSLSSTLTLSKADYEKHKVYACEVTHQGLSSPVTKSFNRGEC | no binding | 351000 | 0.00054 | 0.916 | no binding | – |
| C38: chimeric anti-ROR1 antibody, murine clone C38; CDRs SEQ ID NO 18, 8, 19, 31-33 (antibody) heavy: EVMLVESGGGLVRPGGSLKLSCAASGFTFSSYAMSWVRQTPDKRLEWVASINRDVTTYYPDSVKGRFTISRDNARNILYLQMSSLRSEDTAMYYCARDYYYGSSLYYGMDYWGQGTSVTVSS[human IgG1 constant region not listed] light: DIQMTQSPSSMHASLGERVTITCKASQDINNYVSWFQQKPGKSPKTLIYRANRLVDGVPSRFSGSGSGQDYSFTISSLEYEDMGIYYCLQFDEFPYTFGGGTKLEIKRTVAAPSVFIFPPSDEQLKSGTASVVCLLNNFYPREAKVQWKVDNALQSGNSQESVTEQDSKDSTYSLSSTLTLSKADYEKHKVYACEVTHQGLSSPVTKSFNRGEC | no binding | 314000 | 0.000422 | 0.935 | bind to the antigen protein MusROR1-His; also recorded: binding | – |
| B39: chimeric anti-ROR1 antibody, murine clone B39; CDRs SEQ ID NO 15-17, 38, 32, 33 (antibody) heavy: EVKLVESGGGLVKPGGSLKLSCAASGFTFSTYAMSWVRQTPEKRLEWVASISTGASTYYPDSVKGRFTISRDNARNILYLQMSSLRSEDTAMYYCAREETTTAALYYAMDYWGQGTSVTVSS[human IgG1 constant region not listed] light: DIKITQSPSSMYASLGERVTITCKASQDINNYLSWFQQKPGKSPKTLIYRANRLVDGVPSRFSGSGSGQDYSLTISSLEYEDMGIYYCLQFDEFPYTFGGGTKLEIKRTVAAPSVFIFPPSDEQLKSGTASVVCLLNNFYPREAKVQWKVDNALQSGNSQESVTEQDSKDSTYSLSSTLTLSKADYEKHKVYACEVTHQGLSSPVTKSFNRGEC | no binding | 304000 | 0.00135 | 1.060 | no binding | – |
| C42: chimeric anti-ROR1 antibody, murine clone C42; CDRs SEQ ID NO 22-24, 39-41 (antibody) heavy: EVMLVESGGGLVKPGGSLKLSCAASGFTFSNYIMSWVRQTPEKRLEWVATINSGGTNTYYPDSVKGRFTISRDNAKNSLYLQMNSLRSEDTALYYCTRYNGNYVWFAYWGQGTLVTVSA[human IgG1 constant region not listed] light: DIVLTQSPAIMSASPGEKVTMTCSASSSVSFIYWYQQKPGSSPRLLIYDTSNLASGVPVRFSGSGSGTSYSLTISRMEAEDAATYYCQQWSNYHFTFGSGTKLEIKRTVAAPSVFIFPPSDEQLKSGTASVVCLLNNFYPREAKVQWKVDNALQSGNSQESVTEQDSKDSTYSLSSTLTLSKADYEKHKVYACEVTHQGLSSPVTKSFNRGEC | no binding | 110000 | 0.00325 | 0.652 | bind to the antigen protein MusROR1-His; also recorded: binding | comparable affinity to the control antibody 99961.1 |

“Also recorded” adds a separate entry of the source.
